Reference: the supplement of paper PMC4967469
The IC50 comes from the fitted curve, where viability falls to half of the control; a fit beyond the top or the lowest dose is shown as a bound at that dose. The AUC spans the tested range (256-fold, ending at the top dose) of the same fit; the more sensitive the line, the further below 1. For some of these results: A top dose marked as inferred comes from the curve model; the source does not state it. For some of these results: An entry number marks a drug with two screens in the source, which often give different values.

Legend:
Assay in all cases: Viability of human cancer cell lines after 72 h of drug (GDSC screen)
[1] = compound: C[C@@H](Oc1cc(-c2cnn(C3CCNCC3)c2)cnc1N)c1c(Cl)ccc(F)c1Cl [Crizotinib]; settings: top dose 2 µM
Method: (§1)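 Human cancer cell lines in 384-well plates, medium with 10% serum, drug for 72 h over a 256-fold dose range (nine 2-fold or five 4-fold steps up to the top dose). Adherent lines were fixed and stained with the nucleic acid dye Syto60, suspension lines read with resazurin; signal relative to control wells, capped at 0 and 100%. One two-parameter sigmoid per drug and line, fitted in a mixed model over all curves with the slope shared within a line.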

[2] = compound: NC(=O)c1ncn([C@@H]2O[C@H](CO)[C@@H](O)[C@H]2O)c1N [AICAR]; settings: top dose 2000 µM; top dose inferred
Method: as §1

[3] = compound: O=c1[nH]c2ccccc2n1C1CCN(Cc2ccc(-c3[nH]c4cc5ncnc5cc4nc3-c3ccccc3)cc2)CC1 [AKT inhibitor VIII]; settings: top dose inferred
Method: as §1

[4] = top dose 2.56 µM, screen: GDSC drug entry 171
[5] = top dose 10.24 µM, screen: GDSC drug entry 228

Cell Line | AUC [1] | IC50 [1] | AUC [2] | IC50 [2] | AUC [3, 4] | IC50 [3, 4] | AUC [3, 5] | IC50 [3, 5]
BV-173 (chronic myeloid leukaemia, suspension) | 0.845 | 1200 nM | 0.578 | 198000 nM | 0.973 | > 2560 nM | 0.7 | 2150 nM
NCI-H1770 (non-small cell lung carcinoma, suspension) | 0.992 | > 2000 nM | 0.736 | 530000 nM | 0.968 | > 2560 nM | 0.912 | > 10200 nM
